# Measured values taken from the supplement of paper PMC11417369.
# ± gives the standard deviation of the averaged measurements. The list shows a part of the results.
# Test system: PfAP2-EXP AP2 domain (GST-tagged)
# Experiment: gcPBM binding intensity (ln(normalized median fluorescence intensity)); higher = stronger DNA binding
# In short: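 After 1 h on an Agilent 4 × 180k array of primer-extended double-stranded 36-bp intergenic genomic probes and negative controls, bound GST-tagged P. falciparum DNA-binding domains were detected with Alexa488 anti-GST antibody and scanned at 488 nm. The domains had been expressed in E. coli, and binding took place in 1× PBS with 1% milk, 0.2 mg/ml BSA, 0.5% salmon testes DNA and 0.03% Triton X-100. Binding intensity is the highest Masliner-normalised natural-log median intensity across replicate spots of either probe orientation.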
row,Sequence,gcPBM binding intensity (ln)
1,TATTCCTATAAAAAAACACACACATATAAATATATA [CACACA_site8727],8.52 ± 0.42
2,AAGTATTTTTTTACATGTACATATATATATATATAT [XGTACX_site5065],10.2 ± 0.26
3,AAATAGATAAGTAGGACACACATATATATATATTAA [CACACA_site1862],8.79 ± 0.46
4,ATATTTCAAAATGAAAGTACATATAAAAATTATACA [XGTACX_site3787],8.31 ± 0.29
5,CAAAAACATACCTACACACACAATATGTATTTATAA [CACACA_site5862],8.34 ± 0.42
6,AAATGAATATTCATAGTGCAATATATAAATGAAAAT,9.205 ± 0.078
7,TTTAATTATTAGTGTGCACACAACTATGAGTTTTTA [CACACA_site8997],8.68 ± 0.29
8,AATTACATTCAATTCTGTACTAATAGTAATTCAAAA [XGTACX_site7419],8.47 ± 0.35
9,AATTTTGTTTAGCACACACACATACATACATACATA [CACACA_site5707],8.91 ± 0.3
10,TTTAATTTATATTTTGTGCACATCTTATTATATATA [GTGCAC_site9630],9.135 ± 0.049
11,TATAATATTAATGACTGTACTCATACGTATATTTAT [XGTACX_site5493],8.62 ± 0.4
12,CCCATTTTGACAAAAAGTACAAGTTCAGGTTTTATA [XGTACX_site1532],8.53 ± 0.43
13,AAAAATTAAAATATTATAGTTGAAACTTTTATAAAT [TGCATGCA_negctrl_site454],8.02 ± 0.42
14,TTTCTCTTCTAAACATGTACAAAAATACATACATAT [XGTACX_site1365],8.87 ± 0.41
15,ATATATATATATATATGTACATACATACATAGAACT [XGTACX_site2214],10.4 ± 0.3
16,TCCCATTTATTATGGTGTACAATTAATTAAACATAA [XGTACX_site750],8.54 ± 0.17
17,TATATTTATTCCTGTTGTACTTTATATTATTTTTTT [XGTACX_site1415],9.14 ± 0.32
18,ACATATTAATTATTATGACATACATATCAGTTATTA [TGCATGCA_negctrl_site126],8.38 ± 0.27
19,TATATTATTTTATATTGTACATACCAAATATTATAT [XGTACX_site1693],8.54 ± 0.3
20,AGAAAAATAAACAAATGTACAAATTATTACTATATA [XGTACX_site1087],8.53 ± 0.43
21,CATGTGATAATGATTAGTACATAAACAAAAATATAT [XGTACX_site5866],8.82 ± 0.38
22,TAAAATATAGAAAATTTTATTAAATATAAAAAAATA [CACACA_negctrl_site1441],8.09 ± 0.36

row,Sequence,gcPBM binding intensity (ln)
1,AAAAATATATATTCAGTGCATATAACAAAAATTATA [GTGCAC_site9794],8.56 ± 0.2
2,CATATATAACCTATAGCACACATATATAATATATAT [CACACA_site8544],8.68 ± 0.3
3,ATTAAATAAAAAAACACACACATATATACATATATA [CACACA_site3445],8.54 ± 0.59
4,CATAATAATAGAAACACACACACATAGACATATATA [CACACA_site1308],8.79 ± 0.57
5,TTATATAAACACCAACGTACGTTCATTTAACATAAC [XGTACX_site5250],8.72 ± 0.4
6,TATATATATATATATTGTACATATGTGGTATAAATG [XGTACX_site6108],9.98 ± 0.5
7,ATATTACATATGTGCTGTACGCAATATATTATATCT [XGTACX_site1520],8.82 ± 0.36
8,GCATATCTATTTTCACGTACACAAACATGTATATAT [XGTACX_site3722],9.13 ± 0.42
9,AAGAACTTTAATAAGTGTACATTTATTGGAAACATG [XGTACX_site2995],8.7 ± 0.43
10,TATATATATACATAATGTACATTTTATAAATTTACA [XGTACX_site5283],8.97 ± 0.014
11,ATTTTTTTTTTTATTTTCTTTGAGATTATCTTAATT [CACACA_negctrl_site1209],8.47 ± 0.53
12,TTAATTTGTTCTTACACACACATATATATATATTTA [CACACA_site1185],8.74 ± 0.38
13,AATATTATTATTATTACACACACAATTATATTTACC [CACACA_site8061],8.38 ± 0.32
14,ATATTTTAAATGTTATGTACACATTTGTTGTTTACA [XGTACX_site7353],8.6 ± 0.44
15,ACTACCTATATTTAAGCATGCAAAAAATAAAAATAT [TGCATGCA_site238],9.8 ± 0.58
16,ATAAATTGTTCTTTTTGTGTAAACAGAATATTAAAA [CACACA_negctrl_site1022],8.28 ± 0.49
17,ATACAACATATATATACACACATATAATAATAATAA [CACACA_site3367],8.62 ± 0.42
18,TAATATAAAGGAAAAGAAAAGAAAAGAATATACAAT [CACACA_negctrl_site1369],8.56 ± 0.54
19,GAATAAAAAATATATGTGCACATATAAACTTAAAAT [GTGCAC_site9554],8.9 ± 0.3
20,AAACCAATAAAAAACTGTACAAAAATTATATGAGAT [XGTACX_site1269],8.88 ± 0.38
21,AAAAAACTTATAATCACACATATGATTAAATATTAA [CACACA_site4956],8.21 ± 0.3
22,ATAGGACCTATGTGCCCATGGGTACATTAAAAAAAA [CACACA_negctrl_site1465],8.63 ± 0.45

row,Sequence,gcPBM binding intensity (ln)
1,AAATAACACATATATACACACATATAAATATAATAT [CACACA_site2692],8.6 ± 0.3
2,AAAAAAAAAAAAAAAATACACACGTGAATGTATTGT [CACACA_site1320],8.64 ± 0.3
3,TTTGTTTTAAATCGAAGTACACATAATTATATTTTA [XGTACX_site1541],8.42 ± 0.23
4,TTGAATGTAGTTAAATGTACATGTAATATATAAAAA [XGTACX_site1250],8.85 ± 0.33
5,AATTATTTTTTGTATGAACACACAACTTAATTATGA [CACACA_site8774],8.32 ± 0.38
6,TTTTTACGTAAACAAAATAATTATATAATATTATTT [CACACA_negctrl_site1769],8.38 ± 0.46
7,TAAACAAATAAATAAACACACAATATATGTATATAT [CACACA_site3803],8.38 ± 0.38
8,CGTAAATTTTTTAAAAGTACAAAAAGATACGAGAAA [XGTACX_site8722],8.79 ± 0.59
9,ATATATTAGGGCAAATTTTCTGACATTACATCAGTC [CACACA_negctrl_site1166],8.34 ± 0.38
10,TTTTTAATTCAAAAAATAATATATTATATTTCAAAT [CACACA_negctrl_site737],7.99 ± 0.42
11,ATATTTATATTTGTATGTACTTAAGTTTGTATGTAT [XGTACX_site3608],8.86 ± 0.28
12,TATTTTTCTTTTTTCTGTACTCACACAAATAGAAGG [XGTACX_site7329],8.62 ± 0.33
13,TAAAAATGTAGACACACACACATATATATATTTAAT [CACACA_site1528],8.61 ± 0.4
14,ATATATATAATATAGGTGCACTACTTATTTAAAAAA,9.2 ± 0.51
15,AAATAATTAGCTATTTGTACATATATACATATTTAT [XGTACX_site4652],8.56 ± 0.37
16,TTAATAACAAAATAAACACACATATATAAATCCACA [CACACA_site1590],8.82 ± 0.26
17,AAAATGAATATAATGACGCACACTTAAAATTGTTAA [CACACA_site2509],8.31 ± 0.33
18,TGTGTTAAATGTAATAGTGAATAAATAATTTTAACA [TGCATGCA_negctrl_site161],8.4 ± 0.41
19,TTTTTTAGAAAAAGTTGTACTTTTTTTTTTTTTTTT [XGTACX_site535],8.41 ± 0.085
20,TTTTTATTTTTTTTATGTACACAAATGATATACATA [XGTACX_site5910],8.81 ± 0.38
21,AGGATACACGGACACACACACATATAGATTTATATA [CACACA_site6552],8.59 ± 0.52
22,TTTCTTTTTTTTTTTTTTTCTGGCTTTTTCTCTTTT [TGCATGCA_negctrl_site599],8.36 ± 0.76

row,Sequence,gcPBM binding intensity (ln)
1,TATATTACTTAAAATACACACCATGGAAAAGTTTTA [CACACA_site5443],8.64 ± 0.44
2,TTCTGAACAAAATTATATATTTATTTTTATTTTCAT [CACACA_negctrl_site422],8.35 ± 0.41
3,ATTATTTTTCTATGTGTGCACGTGTGGAATGTGTCT [GTGCAC_site9507],8.98 ± 0.17
4,CATTATGTCATAAATGCACACATATACATTGTTTTG [CACACA_site8118],8.99 ± 0.071
5,AATAAATTATTTATTGCATGTAATATGAATATTTTT [TGCATGCA_site798],8.75 ± 0.11
6,ATATATTTTATTCCTATATATATATATATATATATA [GTGCAC_negctrl_site556],10.2 ± 0.49
7,TAATGTATGAAATAAACACACAAGTAAGTACATAAA [CACACA_site2451],8.87 ± 0.31
8,TCTGTAGTTTTTTACAGTACTTTTAGGTAATACATA [XGTACX_site7417],8.38 ± 0.33
9,AAAACACCCAAACACACACACACATATATATATATA [CACACA_site9119],10.1 ± 0.3
10,TTCTTGTATTTTCATAGTACATATAATGTCGTGTTA [XGTACX_site7714],8.72 ± 0.3
11,TACATAGAGTTTGTTTGTACTCATATGCGTAAATTC [XGTACX_site4810],8.49 ± 0.23
12,ACCTCTTTGAAATATACACACTAAACATATCAACTT [CACACA_site5372],8.87 ± 0.52
13,AGAAAAAAAATATACACACATACGATCATACATATG [CACACA_site2171],8.61 ± 0.64
14,ATTTTTTCTGTCTTAATTGGACCCACTGCAAATGGG [CACACA_negctrl_site1158],8.54 ± 0.47
15,ATAATACAAAAAAAAAAAAAAAATAAAATAATAAAA [GTGCAC_negctrl_site722],8.13 ± 0.51
16,TTATAGCCTGTGAAGAGTACATTTTTATTTTTTATT [XGTACX_site4105],8.51 ± 0.44
17,TACCTAAATAAATGGACACACACATATATATATATA [CACACA_site8407],10.1 ± 0.3
18,AAGTAATACAACACGCACATATATATATATATATAT [GTGCAC_negctrl_site89],10.3 ± 0.3
19,TATTTTTAAATATAAAGTACTTATATTAACTACGAA [XGTACX_site1524],8.27 ± 0.29
20,TTTACGCTATAGGAGAGTACTTATAAAATCCTGTGT [XGTACX_site2364],8.51 ± 0.36
21,TTCATATATTTTAAAGCATGCATTCATCTTATAGTT [TGCATGCA_site800],9.17 ± 0.28
22,AGACGAAAATAATAAAGTACTAAAAAAAAAAAAAAA [XGTACX_site927],8.14 ± 0.51
